# In PubChem BioAssay AID2147 (National Center for Advancing Translational Sciences (NCATS), 2009):
# Where “and” joins values, the source holds several entries; their conditions need not be identical. Identical values can stand only once. The campaign covered roughly 230,000 compounds. About 3,600 (1.6%) were called active. Inconclusive means that the source gave no clear call. Such entries were picked first, then a sample of the others. Calls follow the shape of the dose curve; as a rule, active = well fitted inhibition curve with a large enough effect (not every such curve was filed as active); inconclusive = small, poorly fitted or top-dose-only effect, or another doubt; inactive = no such curve, though single readings can be large or run the other way. Potencies beside an inconclusive call are fits to weak or partial responses and may not hold up.
# Molecular target: Lysine-specific demethylase 4E (Homo sapiens) (UniProt B2RXH2)
# UniProt B2RXH2, sequence (B2RXH2 whole entry, looked up, the tested form may be a part): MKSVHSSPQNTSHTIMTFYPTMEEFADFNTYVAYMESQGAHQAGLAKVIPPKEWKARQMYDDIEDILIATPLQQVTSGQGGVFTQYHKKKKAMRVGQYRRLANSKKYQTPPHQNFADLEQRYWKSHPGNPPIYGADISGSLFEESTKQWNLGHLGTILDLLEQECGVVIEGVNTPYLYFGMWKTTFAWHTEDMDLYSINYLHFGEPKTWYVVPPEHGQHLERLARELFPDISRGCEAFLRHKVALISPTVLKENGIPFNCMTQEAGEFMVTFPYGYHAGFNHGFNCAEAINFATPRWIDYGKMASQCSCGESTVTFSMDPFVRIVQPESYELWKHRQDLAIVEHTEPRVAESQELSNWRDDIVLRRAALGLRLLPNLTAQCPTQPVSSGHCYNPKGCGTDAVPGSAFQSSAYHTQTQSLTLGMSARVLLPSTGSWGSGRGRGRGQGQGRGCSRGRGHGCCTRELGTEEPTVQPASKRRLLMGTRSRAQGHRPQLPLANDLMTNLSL
# Assay: qHTS Assay for Inhibitors of Human Jumonji Domain Containing 2E (JMJD2E)
# Conditions: JMJD2E catalytic domain, FDH-coupled NADH fluorescence (FDH is formaldehyde dehydrogenase); series mostly up to 57.1 µM
# Also: nearly all actives have a fitted effect of over 50% in size.
# Potency is read from the fitted curve at half-maximal effect; tags tell the direction and shape of the fitted curve.
row,SMILES,Potency
1,Nc1nc2ncc(C(=O)c3cc(Cl)cc(Cl)c3O)cc2s1,"inconclusive: 14.1 µM [inhibitor, partial curve]"
2,O=C(c1cc(-c2ccncc2)nc2ccc(Br)cc12)N1CCN(c2ccccn2)CC1,inactive
3,O=C(N/N=C/C=C/c1ccco1)c1ccncc1,"inconclusive: 28.2 µM [inhibitor, single point]"
4,COc1ccc(N2CC(C(=O)N/N=C/c3cc([N+](=O)[O-])ccc3O)CC2=O)cc1 (centres undefined),active: 25.1 µM
5,O=C(CCc1nnc(CCCc2ccccc2)o1)NCC(F)(F)F,"inconclusive: 7.08 µM [inhibitor, partial curve]"
6,CN1C(=O)c2cccc3c(S(=O)(=O)NCc4ccco4)ccc1c23,"inconclusive: 35.5 µM [inhibitor, partial curve]"
7,O=c1cc(-c2ccccc2)nc(SCCOc2ccccc2Cl)[nH]1,"inconclusive: 15.8 µM [inhibitor, single point]"
8,CCOc1ccc(-n2cnnn2)cc1S(=O)(=O)NC1CC1,inactive
9,CCN(CC)c1ccc(C(=O)N/N=C/c2ccc(OC)cc2OC)cc1,"inconclusive: 35.5 µM [inhibitor, single point]"
10,Cc1cc(=O)n2cc(-c3ccccc3)nc2[nH]1,"inconclusive: 28.2 µM [inhibitor, partial curve]"
11,C=CCc1cc(/C=N\NC(=O)CSc2nnc(CCCc3ccc(OC)c(C)c3)o2)cc(OC)c1O,"inconclusive: 39.8 µM [inhibitor, single point]"
12,C#CCOCCOCCOCCNc1nc(N2CCN(C(=O)[C@H](Cc3cc4ccccc4[nH]3)n3cc([C@@H](N)C(C)CC)nn3)CC2)nc(N2CCN(C(=O)[C@H](Cc3cc4ccccc4[nH]3)n3cc([C@@H](N)CC(C)C)nn3)CC2)n1 (some centres undefined),inactive
13,O=C(CSc1ccc(-c2cccs2)nn1)N1CCCCC1,"inconclusive: 39.8 µM [inhibitor, single point]"
14,Cc1ccc(C(NC(=O)C(C)C)c2cc([N+](=O)[O-])c3cccnc3c2O)cc1 (centres undefined),active: 20 µM
15,CCOc1cc(/C=N/OC(C)=O)ccc1OCc1ccccc1,inactive
16,COc1ccc(N=c2oc3cc(O)ccc3cc2C(=O)NCC2CCCO2)c(OC)c1 (centres undefined),"inconclusive: 35.5 µM [inhibitor, single point]"
17,O=C(CCCCCNC(=O)c1ccccc1Br)N=Nc1c(O)[nH]c2ccccc12,inactive
18,O=C1S/C(=C\c2ccc(N3CCOCC3)o2)C(=O)N1Cc1ccc(F)cc1,inactive
19,O=C(N/N=C/c1ccc(O)c([N+](=O)[O-])c1)C1CC1(c1ccccc1)c1ccccc1 (centres undefined),"inconclusive: 39.8 µM [inhibitor, single point]"
20,O=C(COc1ccc2ccc(=O)oc2c1)Nc1ccc2c(c1)OCCO2,"inconclusive: 28.2 µM [inhibitor, partial curve]"
21,C=CCNC(=S)N1CCN(c2ncc(C(F)(F)F)cc2Cl)CC1,inactive
22,CCC1SC2=NC(C)=C(C(=O)OCC(C)C)C(/C=C/c3ccccc3OC)N2C1=O (centres undefined),inactive
23,Cc1ccc(/C=C\c2nccc3c2[nH]c2ccccc23)cc1,"inconclusive: 25.1 µM [inhibitor, partial curve]"
24,O=C(NCc1cn2ccccc2n1)c1ccc2c(c1)OCO2,"inconclusive: 31.6 µM [inhibitor, partial curve]"
25,O=C1C2CCCN2C(c2ccccc2)N1c1ccc(Cl)cc1 (centres undefined),inactive

row,SMILES,Potency
1,Cc1c(C(=O)OCC(=O)c2ccc3c(c2)OCCO3)oc2ccccc12,inactive
2,CCOc1ccc(C(=O)Nc2nncs2)cc1OCC,"inconclusive: 25.1 µM [inhibitor, single point]"
3,CCN(C(=O)CSc1nnc(-c2cccs2)o1)C1CCS(=O)(=O)C1 (centres undefined),"inconclusive: 35.5 µM [inhibitor, single point]"
4,O=C(N/N=C/c1sc(N2CCOCC2)nc1-c1ccccc1)c1cccc(S(=O)(=O)N2CCCC2)c1,"inconclusive: 25.1 µM [inhibitor, partial curve, poor fit]"
5,CCOC(=O)c1sc(N)nc1-c1ccccc1,inactive
6,CCOc1ccc2oc(C(=O)OCC(=O)NC(=O)NC)c(C)c2c1,"inconclusive: 10 µM [inhibitor, partial curve]"
7,COC(=O)c1sccc1NC(=O)C1CC=CCC1C(=O)O (centres undefined),inactive
8,CCn1c(SCC(=O)Nc2cc(C)on2)nnc1-c1ccc(S(=O)(=O)N2CCCC2)cc1,"inconclusive: 39.8 µM [inhibitor, single point]"
9,O=C(O)c1cccc(COc2ccc3c(c2)CCC3)c1,inactive
10,COc1ccc(C2(O)CC3CCC(C2)N3c2nc(C)cc(C)c2C#N)cc1 (centres undefined),"inconclusive: 28.2 µM [inhibitor, single point]"
11,O=C(Nc1nc(-c2ccc(Cl)cc2Cl)cs1)c1ccc(OCC2CCCO2)cc1 (centres undefined),"inconclusive: 22.4 µM [inhibitor, single point]"
12,CCOc1cc(/C=C2\C(=O)N(CCC#N)N=C2C)ccc1OCC(N)=O,"inconclusive: 2.24 µM [inhibitor, partial curve]"
13,CCOC(=O)C1=C(CSc2nc3c(cc2C#N)CN(C)CC3)OC(N)=C(C#N)C1c1ccc(F)cc1 (centres undefined),"inconclusive: 15.8 µM [inhibitor, partial curve]"
14,Cc1ccccc1-c1nn2c(-c3ccccc3)nnc2s1,"inconclusive: 31.6 µM [inhibitor, single point]"
15,CCC(OC(=O)c1cccs1)C(=O)NCc1ccc2c(c1)OCO2 (centres undefined),inactive
16,CCCc1cc(=O)[nH]c(Nc2ccc(N3CCCCC3)cc2)n1,inactive
17,CC1=C/C(=N\OS(=O)(=O)c2ccccc2)C(C(C)C)=CC1=O,active: 3.98 µM
18,COCCCn1cnnc1SCc1nc2sc(C(C)=O)c(C)c2c(=O)[nH]1,"inconclusive: 31.6 µM [inhibitor, single point]"
19,O=C(Nn1c(O)c(C=C2N=c3ccccc3=N2)sc1=S)c1ccccc1,inactive
20,O=C(N/N=C/c1ccc(O)cc1)c1cc(-c2ccc3c(c2)OCO3)n[nH]1,inactive
21,O=C(CSc1nncc(=O)[nH]1)NCc1ccccc1,inactive
22,CC(Nc1cc(N2CCN(C(=O)C(C)(C)C)CC2)ccc1[N+](=O)[O-])c1ccccc1 (centres undefined),"inconclusive: 39.8 µM [inhibitor, single point]"
23,CC1CCCCN1C(C(=O)O)c1ccccc1 (centres undefined),"inconclusive: 35.5 µM [inhibitor, partial curve]"
24,O=C(/C=C/c1ccccc1)NCc1ccco1,inactive
25,Cc1cc(-c2ccccc2)[nH]c(=O)c1C#N,"inconclusive: 28.2 µM [inhibitor, partial curve]"

row,SMILES,Potency
1,C/C(N)=C(/C#N)C(=O)CSc1nnc(NC(C)C)s1,inactive
2,Cc1oc2cc(OCc3cnn(-c4ccccc4)c3)ccc2c(=O)c1Oc1ccccc1F,"inconclusive: 35.5 µM [inhibitor, single point]"
3,COc1ccc(-c2c[n+]3c4n2CCCCC4=C(c2ccccc2)C3)cc1,"inconclusive: 35.5 µM [inhibitor, single point]"
4,COCCNC(=O)/C(C#N)=C1\N=C(N)c2ccccc21,inactive
5,CCCC(=O)Nc1nnc(-c2ccc3c(c2)OCO3)s1,"inconclusive: 3.55 µM [inhibitor, full curve]"
6,CC(C)C(=O)N1CCN(c2ccc(NC(=O)c3ccc([N+](=O)[O-])o3)cc2)CC1,"inconclusive: 3.98 µM [inhibitor, full curve, poor fit]"
7,CC(C)(CCl)C(=O)Nc1ccc(C(F)(F)F)cc1,inactive
8,Cc1ccc2nnc(Cl)n2n1,"inconclusive: 28.2 µM [inhibitor, single point]"
9,Cc1ccc(S(=O)(=O)N/N=C\c2ccc(C)o2)cc1,inactive
10,COc1ccc(-n2cc(C#N)c(=O)n(Cc3ccc(F)cc3)c2=O)cc1,"inconclusive: 31.6 µM [inhibitor, single point]"
11,Cc1ccc(C(=O)Nc2ccc(N3CCOCC3)nc2N2CCOCC2)cc1,"inconclusive: 35.5 µM [inhibitor, single point]"
12,CCN(CC)CC(=O)NN(Cc1ccccc1)c1ccccc1,"inconclusive: 25.1 µM [inhibitor, single point]"
13,CCN(CC)CCCC(C)n1c(-c2ccccc2)nc2c(NCCOC)nc(C)nc21 (centres undefined),"inconclusive: 28.2 µM [inhibitor, partial curve]"
14,Nc1ccc(N=Nc2ccccc2)c(N)n1,"inactive and inconclusive: 5.01 µM [inhibitor, single point]"
15,CCC(=O)Nc1nnc(-c2ccncc2)s1,"inconclusive: 31.6 µM [inhibitor, partial curve]"
16,O=C(CSc1nc(-c2ccco2)cc(C(F)(F)F)n1)Nc1ccc2c(c1)OCO2,inactive
17,O=c1c2ccccc2nc2n1CCN2,"inconclusive: 31.6 µM [inhibitor, partial curve]"
18,COc1ccc(CCNC(=O)CN2CCN(c3cccc(C(F)(F)F)c3)CC2)cc1,inactive
19,COCCCNc1nc2ccccc2[nH]c1=O,"inconclusive: 31.6 µM [inhibitor, partial curve]"
20,CCSC1=C(C#N)C2(CCCCC2)C(C#N)=C(N)N1,inactive
21,COc1ccc(OCc2cc(C(=O)O)c(C)o2)cc1,inactive
22,O=C(COc1ccc2ccc(=O)oc2c1)N1CCN(c2ccccc2)CC1,"inconclusive: 25.1 µM [inhibitor, partial curve]"
23,CCC(OC(C)=O)c1cc2c(cc1[N+](=O)[O-])OCCO2 (centres undefined),inactive
24,CC1=C(C#N)C(Nc2cccc(C)n2)(C(F)(F)F)C(=O)N1 (centres undefined),"inconclusive: 35.5 µM [inhibitor, single point]"
